Reference: PubChem BioAssay AID504333 (National Center for Advancing Translational Sciences (NCATS), 2011)
The whole screen tested about 360,000 compounds, of which about 16,000 (4.4%) were called active. This list was built around the results that the source calls inconclusive (neither active nor inactive); the mix of calls is not that of the screen. The call rests on the fitted dose curve; in most records, active means well fitted inhibition curve with a large enough effect; inconclusive means small, poorly fitted or top-dose-only effect; inactive means no such curve, though single readings can be large or run the other way. Potencies of inconclusive entries are doubtful fits and often do not repeat.
Further: nearly all actives have a fitted effect of over 60% in size.
Potency means the concentration at half of the fitted maximal effect; tags describe the fitted curve by direction and shape.

The compounds below were run against Bromodomain adjacent to zinc finger domain protein 2B (Homo sapiens) (UniProt Q9UIF8) (assay: qHTS Assay for Inhibitors of BAZ2B). Details: AlphaScreen BAZ2B-H3K14Ac peptide displacement; series mostly up to 114 µM.
Sequence of UniProt Q9UIF8 (Q9UIF8 whole entry, looked up, the tested form may be a part): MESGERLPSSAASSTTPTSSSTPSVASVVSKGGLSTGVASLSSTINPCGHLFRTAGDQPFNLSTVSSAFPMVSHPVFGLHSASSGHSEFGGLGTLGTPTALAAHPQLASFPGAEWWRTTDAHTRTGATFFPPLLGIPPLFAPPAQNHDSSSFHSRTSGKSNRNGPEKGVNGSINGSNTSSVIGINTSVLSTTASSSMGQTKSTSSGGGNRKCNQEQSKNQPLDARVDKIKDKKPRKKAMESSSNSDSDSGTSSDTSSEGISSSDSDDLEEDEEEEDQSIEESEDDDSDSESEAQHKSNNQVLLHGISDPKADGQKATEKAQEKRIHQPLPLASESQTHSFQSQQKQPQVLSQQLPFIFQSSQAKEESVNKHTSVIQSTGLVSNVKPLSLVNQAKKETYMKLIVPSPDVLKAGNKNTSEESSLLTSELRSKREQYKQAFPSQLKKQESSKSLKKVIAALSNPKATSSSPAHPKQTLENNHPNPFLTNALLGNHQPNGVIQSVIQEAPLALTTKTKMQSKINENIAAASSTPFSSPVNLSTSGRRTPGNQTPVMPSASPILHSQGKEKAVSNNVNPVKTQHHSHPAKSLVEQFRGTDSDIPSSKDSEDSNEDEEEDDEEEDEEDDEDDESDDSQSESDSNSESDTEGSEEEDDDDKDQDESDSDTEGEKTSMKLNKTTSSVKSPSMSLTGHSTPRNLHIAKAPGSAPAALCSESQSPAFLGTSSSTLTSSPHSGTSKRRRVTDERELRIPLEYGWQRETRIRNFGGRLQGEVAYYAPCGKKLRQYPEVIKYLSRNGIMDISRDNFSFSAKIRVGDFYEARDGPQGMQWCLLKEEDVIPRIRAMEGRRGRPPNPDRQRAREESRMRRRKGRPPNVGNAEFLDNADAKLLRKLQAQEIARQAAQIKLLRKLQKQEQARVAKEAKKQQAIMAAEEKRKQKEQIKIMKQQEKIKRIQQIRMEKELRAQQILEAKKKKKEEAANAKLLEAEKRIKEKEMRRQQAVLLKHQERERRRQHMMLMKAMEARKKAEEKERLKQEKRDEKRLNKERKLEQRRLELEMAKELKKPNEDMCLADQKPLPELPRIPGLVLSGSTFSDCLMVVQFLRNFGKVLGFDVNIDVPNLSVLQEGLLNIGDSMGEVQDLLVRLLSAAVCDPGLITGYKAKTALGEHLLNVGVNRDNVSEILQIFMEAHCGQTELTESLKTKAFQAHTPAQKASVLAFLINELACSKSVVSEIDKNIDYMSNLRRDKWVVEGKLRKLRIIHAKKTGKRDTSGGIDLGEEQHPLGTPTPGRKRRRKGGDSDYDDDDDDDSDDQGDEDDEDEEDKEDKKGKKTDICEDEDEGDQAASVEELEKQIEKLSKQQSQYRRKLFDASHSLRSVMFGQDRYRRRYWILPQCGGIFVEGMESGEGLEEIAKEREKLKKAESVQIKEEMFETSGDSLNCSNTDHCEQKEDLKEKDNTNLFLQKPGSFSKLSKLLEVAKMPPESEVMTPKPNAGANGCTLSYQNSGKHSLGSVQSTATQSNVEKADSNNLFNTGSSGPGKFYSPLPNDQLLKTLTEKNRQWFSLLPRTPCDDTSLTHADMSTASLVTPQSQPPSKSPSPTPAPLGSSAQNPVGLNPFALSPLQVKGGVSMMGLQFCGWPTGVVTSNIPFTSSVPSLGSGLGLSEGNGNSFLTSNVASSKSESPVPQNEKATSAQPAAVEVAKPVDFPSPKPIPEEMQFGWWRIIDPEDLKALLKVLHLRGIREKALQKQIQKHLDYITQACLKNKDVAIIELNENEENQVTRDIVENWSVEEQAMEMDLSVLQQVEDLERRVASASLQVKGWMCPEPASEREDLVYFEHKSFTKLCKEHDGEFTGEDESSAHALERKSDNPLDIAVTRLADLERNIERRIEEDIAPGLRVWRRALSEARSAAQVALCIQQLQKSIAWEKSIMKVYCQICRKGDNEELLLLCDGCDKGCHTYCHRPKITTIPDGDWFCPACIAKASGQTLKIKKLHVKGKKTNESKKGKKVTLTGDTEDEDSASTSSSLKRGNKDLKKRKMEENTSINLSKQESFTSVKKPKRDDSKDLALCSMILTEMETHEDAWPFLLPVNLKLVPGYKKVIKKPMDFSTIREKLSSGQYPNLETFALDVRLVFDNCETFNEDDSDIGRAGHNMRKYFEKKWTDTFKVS
Method in brief: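 Complex of BAZ2B and biotin-H3K14Ac (50 nM apiece) forms over 30 min at RT, then faces library compounds up to 110 uM for another 30 min; AlphaScreen beads added, 20 min dark incubation, luminescence read.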
With `COc1ccc(C(=O)N2CCN(Cc3ccc(OC)c(OC)c3)CC2)cc1` the Potency was inconclusive: 89.1 µM [inhibitor, single point].
In the case of `CCOc1ccccc1N1CCN(Cc2cnc(-c3ccccc3)[nH]2)CC1`, the Potency is reported as inconclusive: 35.5 µM [inhibitor, partial curve].
`O=c1[nH]c2ccccc2n1CCCN1CCN(C(c2ccccc2)c2ccccc2)CC1` was tested, and the Potency was inconclusive: 44.7 µM [inhibitor, partial curve].
With `Cc1ccc(NC(=O)C2CCCN2S(=O)(=O)c2ccc3c(c2)n(C)c(=O)c(=O)n3C)cc1C` (stereo unspecified) the Potency was inconclusive: 89.1 µM [inhibitor, single point].
For `CCC(C)NCCOCCSc1ccc(Cl)cc1` (stereo unspecified), the Potency was active: 79.4 µM.
With `S=C(Nc1ccccc1)Nc1ccc(Br)cc1` the Potency was “inactive”.
`COc1cc(C2CC(=O)Oc3c(C(CCN4CCOCC4)c4ccc(N(C)C)cc4)c(OC)cc(OC)c32)cc(OC)c1OC` (stereo unspecified) was tested, and the Potency was active: 44.7 µM.
In the case of `COc1ccccc1CNC(=O)[C@H](Cc1c[nH]c2ccccc12)NC(=O)[C@@H]1Cc2ccccc2CN1`, the Potency is reported as inconclusive: 79.4 µM [inhibitor, single point].
`CC1CC(C)CN(S(=O)(=O)c2ccc(C(=O)Nc3nnc(C4CC4)o3)cc2)C1` (stereo unspecified) was tested, and the Potency was inconclusive: 79.4 µM [inhibitor, single point].
In the case of `O=c1c(O[C@@H]2O[C@H](CO)[C@H](O)[C@H](O)[C@H]2O)c(-c2ccc(O)c(O)c2)oc2cc(O)cc(O)c12`, the Potency is reported as inconclusive: 79.4 µM [inhibitor, single point].
`O=C(CCc1ccc(S(=O)(=O)N2CCOCC2)cc1)N/N=C/c1ccc(O)c(O)c1O` was tested, and the Potency was inconclusive: 35.5 µM [inhibitor, partial curve].
In the case of `Cc1ccc(-c2nnn(CC(=O)N(CC(=O)NCc3ccccc3)c3cccc(C)c3C)n2)o1`, the Potency is reported as inconclusive: 89.1 µM [inhibitor, single point].
`CCOC(=O)N1CCC(NC(=O)CS(=O)Cc2nc(-c3ccc(OC)c(OC)c3)oc2C)CC1` (stereo unspecified) was tested, and the Potency was inconclusive: 100 µM [inhibitor, single point].
With `NC(=O)[C@@H]1CCCNc2c(I)cc([N+](=O)[O-])cc2C(=O)N[C@@H](CO)C(=O)N[C@@H](Cc2ccc(O)cc2)C(=O)N1` the Potency was “inactive”.
For `Cn1c(N)c(-c2ccccc2)c2ccc([N+](=O)[O-])cc2c1=O`, the Potency was inconclusive: 50.1 µM [inhibitor, partial curve, poor fit].
For `CCOc1ccc2oc(=O)cc(CN3CCN(c4ccccc4OC)CC3)c2c1`, the Potency was “inactive”.
`COc1ccc(CCNC(=S)N2CCC(Cc3ccccc3)CC2)cc1OC` was tested, and the Potency was inconclusive: 31.6 µM [inhibitor, full curve].
In the case of `CC(=O)Nc1ccc(C)c(NS(=O)(=O)c2cccc(C(F)(F)F)c2)c1`, the Potency is reported as “inactive”.
`CCOC(=O)c1cc(C(=O)c2ccccc2O)cn2c(=O)c3c(C)c(C)sc3nc12` was tested, and the Potency was inconclusive: 89.1 µM [inhibitor, single point].
For `CN(C)c1ccc(NC(=O)C2CCCN(S(=O)(=O)c3ccccc3)C2)cc1` (stereo unspecified), the Potency was inconclusive: 25.1 µM [inhibitor, full curve].
With `CCC(=O)Nc1ccc(C(=O)NNC(=O)COc2cc(C)ccc2C)cc1` the Potency was “inactive”.
`CC(C)CNC(=O)COC(=O)c1cc(S(=O)(=O)N(C)C)ccc1N1CCCC1` was tested, and the Potency was inconclusive: 112 µM [inhibitor, partial curve, poor fit].
In the case of `COc1ccc(S(=O)(=O)NCc2ccc(C(=O)N3CCN(Cc4ccccc4)CC3)cc2)cc1`, the Potency is reported as inconclusive: 89.1 µM [inhibitor, single point].
With `Cn1c(=O)oc2cc(S(=O)(=O)NCc3ccccc3)ccc21` the Potency was inconclusive: 11.2 µM [inhibitor, single point].
For `Cc1c(CN2CCCCC2C)c(=O)n(-c2ccccc2)n1C` (stereo unspecified), the Potency was inconclusive: 89.1 µM [inhibitor, single point].
`COc1cc(NC(=O)CCCNC(=O)Cn2cnc3sc4c(c3c2=O)CCCC4)cc(OC)c1OC` was tested, and the Potency was “inactive”.
In the case of `CC(C)=C1SC(N2CCN(c3cccc(Cl)c3)CC2)=NC1=O`, the Potency is reported as inconclusive: 89.1 µM [inhibitor, single point].
With `CC1(C)Cc2c(c(-c3ccccc3)nc(N3CCOCC3)c2C(N)=O)CO1` the Potency was inconclusive: 89.1 µM [inhibitor, single point].
With `CS(=O)(=O)c1ccc(C(=O)Nc2nc(-c3ccco3)c(-c3ccco3)s2)cc1` the Potency was active: 39.8 µM.
For `O=C(CCN1C(=O)/C(=C/c2ccc(F)cc2)SC1=S)NCCCn1ccnc1`, the Potency was inconclusive: 22.4 µM [inhibitor, partial curve].
In the case of `Cc1ccc(-n2c(-c3cc(-c4ccco4)[nH]n3)n[nH]c2=S)c(Br)c1`, the Potency is reported as inconclusive: 39.8 µM [inhibitor, partial curve].
With `S=C(c1ccc(-c2ccc(Br)cc2)o1)N1CCOCC1` the Potency was active: 28.2 µM.
In the case of `COc1cc(NC(=O)Cn2nc3c(cc2=O)CC(C)CC3)cc(OC)c1OC` (stereo unspecified), the Potency is reported as “inactive”.
For `C/C=C/c1ccc(OCC(O)CN2CCCCCCC2)c(OC)c1` (stereo unspecified), the Potency was inconclusive: 79.4 µM [inhibitor, partial curve].
`CCOc1ccccc1N1CCN(C(=O)CCCN2C(=O)c3cccc4cccc(c34)C2=O)CC1` was tested, and the Potency was inconclusive: 39.8 µM [inhibitor, full curve, poor fit].
With `O=C(COC(=O)CCC(=O)c1cccs1)NCc1ccco1` the Potency was inconclusive: 50.1 µM [inhibitor, partial curve].
In the case of `Cc1nn(-c2ccccc2)c2c1C(c1ccc([N+](=O)[O-])cc1)C(C#N)=C(N)O2` (stereo unspecified), the Potency is reported as inconclusive: 39.8 µM [inhibitor, partial curve].
`COc1cc(OC)c(N(C)C(=O)c2sc3nc4n(c(=O)c3c2C)CCCCC4)cc1Cl` was tested, and the Potency was active: 50.1 µM.
For `CCOC(=O)C1CCCCN1Cc1ccc(F)cc1` (stereo unspecified), the Potency was active: 50.1 µM.
For `COc1cccc(-n2c(Cn3nc(C(F)F)cc3C(F)F)n[nH]c2=S)c1`, the Potency was “inactive”.
In the case of `O=C(NN1C(=O)c2ccccc2NC1c1ccco1)c1ccc(Br)cc1` (stereo unspecified), the Potency is reported as inconclusive: 89.1 µM [inhibitor, single point].
In the case of `COc1ccccc1NC(=O)C1=C(C)Nc2nc(SCc3ccccc3)nn2C1c1ccncc1` (stereo unspecified), the Potency is reported as inconclusive: 89.1 µM [inhibitor, single point].
For `Cn1c(-c2ccc(C=O)s2)nc2c3ccccc3c3ccccc3c21`, the Potency was “inactive”.
With `CC(=O)C1=C(C)NC(SCC(=O)c2ccc(F)cc2)=C(C#N)C1CC(C)C` (stereo unspecified) the Potency was “inactive”.
In the case of `CCN(C(=O)C1CCCN(c2ncnc3c2nc2n3CCCCC2)C1)c1cccc(Cl)c1` (stereo unspecified), the Potency is reported as inconclusive: 39.8 µM [inhibitor, single point].
For `CCCCCCN1C2=NCCN2c2ccccc21`, the Potency was “inactive”.
In the case of `Cc1c(CCNC(=O)C(C)(C)C)sc2nc(-c3ccc(F)cc3)nn12`, the Potency is reported as “inactive”.
In the case of `Cc1c(C(=O)NCc2ccc3c(c2)OCO3)sc2nc(-c3ccccc3)cn12`, the Potency is reported as inconclusive: 50.1 µM [inhibitor, partial curve].
`CCN1C(=O)/C(=c2\sc3nc(=O)c(Cc4ccccc4)nn3c2=O)c2ccccc21` was tested, and the Potency was inconclusive: 50.1 µM [inhibitor, partial curve].
`COc1cc2ccccc2cc1C(=O)N(CCN(C)C)c1nc2c(F)cc(F)cc2s1` was tested, and the Potency was inconclusive: 15.8 µM [inhibitor, partial curve].
`O=C(NCc1ccco1)C1CCN(C(=O)c2cc3sccc3n2Cc2ccc(F)cc2)CC1` was tested, and the Potency was inconclusive: 44.7 µM [inhibitor, partial curve].
With `CC(C)(C)[C@@H]1C=C(C(=O)N2CCN(Cc3ccc4c(c3)OCO4)CC2)O[C@H](OCc2ccc(CO)cc2)C1` the Potency was inconclusive: 50.1 µM [inhibitor, partial curve].
With `O=C(O)c1ccc2c(c1)C(=O)N(c1nccs1)C2=O` the Potency was inconclusive: 79.4 µM [inhibitor, partial curve].
For `CN(CC(=O)Nc1cccc(F)c1)C(=O)c1ccc2c(c1)CC(c1ccccc1)OC2=O` (stereo unspecified), the Potency was inconclusive: 89.1 µM [inhibitor, single point].
`COc1ccc(C2=NS(=O)(=O)N(C)C(C(=O)Nc3ccc4c(c3)OCO4)=C2)cc1` was tested, and the Potency was inconclusive: 39.8 µM [inhibitor, full curve].
For `O=C(CSc1nccn1Cc1ccccc1)Nc1ccc2c(c1)OCCO2`, the Potency was inconclusive: 31.6 µM [inhibitor, partial curve].
In the case of `Cc1cc(OCC(=O)OCC(=O)NC2CCCCCC2)ccc1Cl`, the Potency is reported as “inactive”.
`O=C1N[C@@H](Cc2cnc[nH]2)C(=O)N2CCC[C@@H]12` was tested, and the Potency was inconclusive: 63.1 µM [inhibitor, partial curve, poor fit].
For `Cc1c2cnn(CC(=O)Nc3c(F)c(F)cc(F)c3F)c(=O)c2c(C)n1Cc1ccc(F)cc1`, the Potency was inconclusive: 70.8 µM [inhibitor, single point].
`O=C(CN1CCN(Cc2ccccc2)CC1)N/N=C/c1cccs1` was tested, and the Potency was inconclusive: 89.1 µM [inhibitor, single point].
In the case of `CCOC(=O)[C@H](CCc1ccccc1)N[C@@H](C)C(=O)N1C(C(=O)O)C[C@@H]2CCC[C@@H]21` (stereo partly specified), the Potency is reported as “inactive”.
`Cc1cc2cc(CNC(=O)COc3ccccc3)ccc2n1C` was tested, and the Potency was inconclusive: 50.1 µM [inhibitor, partial curve].
For `Cc1ncn(-c2ccccc2)c1-c1ccccc1`, the Potency was active: 50.1 µM.
In the case of `O=C(COC(=O)c1ccccc1Nc1cccc(C(F)(F)F)c1)NCc1ccco1`, the Potency is reported as active: 44.7 µM.
With `Cc1nc(C)c(Oc2cccc(C(F)(F)F)c2)c(=O)[nH]1` the Potency was “inactive”.
In the case of `CNC(=S)N1N=C(c2ccc(C)cc2)CC1c1ccc(OC)c(OC)c1` (stereo unspecified), the Potency is reported as inconclusive: 70.8 µM [inhibitor, single point].
